Source: the supplement of paper PMC11417369
Some of the results follow.

tested on: PfSIP2 AP2 domain 1 (GST-tagged); test: gcPBM binding intensity (ln(normalized median fluorescence intensity)); higher = stronger DNA binding
In short: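 Binding of GST-tagged P. falciparum DNA-binding domains, expressed in E. coli and used at about 25 μg on average, was carried out for 1 h in 1× PBS containing 1% milk, 0.2 mg/ml BSA, 0.5% salmon testes DNA and 0.03% Triton X-100. The target was an Agilent 4 × 180k array of primer-extended double-stranded 36-bp intergenic genomic probes plus negative controls, read with Alexa488 anti-GST antibody at 488 nm. Binding intensity is the highest Masliner-normalised natural-log median intensity across replicate spots of either probe orientation.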

Sequence	gcPBM binding intensity (ln)
ATATATATATATATATGTACTTAAAAAATATATACA [XGTACX_site8952]	8.99
AAAAAAAAAAAAAAAAAAAAAAAAAAAATACGAAAG [GTGCAC_negctrl_site729]	8.9
CTTTTTAATTAATACACACACACACGGATATAAATA [CACACA_site7145]	7.27
TATTTTTTTTGTGTGTGTCCTCATGTAATACTGCAA [XGTACX_site1380]	7.5
TATATTAAACTTTGCACACATAATTTAACTACAAAG [CACACA_site3441]	7.39
AATCATTTATTGATGGTGCAATATACCATCTAATGA [GTGCAC_site9440]	9.44
AAAAAAAAAAAACACACACACACACCCAAATATATA [CACACA_site150]	7.14
CATAATACATATAACACACACAATTATACATAAAAT [CACACA_site3233]	7.13
GGAATTGAAAAATCAGCACACACACTAATACATACA [CACACA_site9059]	7.04
AATAATTGTTAAAGGTGTACAATACCTACATAAGAA [XGTACX_site4215]	7.53
AAATGGCAATAATGGACACACAAATGTTGTTATATA [CACACA_site2819]	6.85
AAAAAGGAAATTTACACACACATATAATATACATTA [CACACA_site3296]	7.01
ATTTACCAGACCATATGTACATACATAAAACACACA [XGTACX_site3788]	7.46
GTTCTACAAGCCACTGCATGCTGATATAGAATAAAT [TGCATGCA_site138]	6.86
TCATATATCCTTATCACACATATAATAAATTCCCTT [CACACA_site4457]	6.86
AATATTTCTCATTTTGTGCACTGAAAAATGTAATAT	10.2
TTCTTTGCTTTTCAAACACACAAAAGTTATTATAGT [CACACA_site6390]	7.13
TCACATTTTGGACACGTGCACATATATTTGATACAT	8.43
ATTTATATATAAATGTGTACATATATATATATAAAC [XGTACX_site7592]	7.43
ATTGTAAGTAAACACACACACATATATCTGTATTTA [CACACA_site4542]	6.99
CTGAAATTAACAAAAGTGCATAAAAATAAAAAATAT [GTGCAC_site9652]	8.33
TACCATGTTCAAATTACACACATATAATGCAATATA [CACACA_site7034]	7.09
CAATGCAAGGCTTAAAAAAATGGGCATATTATATAT [GTGCAC_negctrl_site304]	6.94
TTTTTTTACAACATTACACACAAATATTCTGGGTTA [CACACA_site3755]	7.05
AATATTATATTAAAATGTACAAAAATGAATTACTTT [XGTACX_site1473]	6.8
